Test results published in the RNAGym collection of RNA variant scans (doi:10.7554/elife.90254).
The source gives no read counts; variants with many changes may rest on few reads.

B1: OR4K15 (parent)
chain: GUUAACGGUCAUAGGCCAUGGAAACUAGGAGCACCAUUUCGCUGCCAGUGAAGAAAUGAACAAAGAAAAUCUGGGCCAGGCAGGCAUCAAAAGAAAUAGUCUUGCGCUCAACCAGAAAGUCUGUAAUCAUUUUAAGGGUA

Variants of: B1
Assay: self-cleavage, relative activity (ratio to wild type); higher = more cleavage; in vitro, sequencing; the parent is a self-cleaving ribozyme

Variant	self-cleavage
U37C A52G A67G A68G	1.97
U9C A18G A47G C71U A91G A118G	0.19
U37A U122C U130G	1.01
U12C U19C A66G	1.1
A11U A22G U132C	1.33
A60G U72C C105U	0.02
A78U A82G G106A U122C	0.01
A27G A95G A114G	0.52
A11U A56G A110C A126G	0.1
U12C A13G U102C	0.62
A5G U9C A55G A86U	1.05
G8A A13G C81U U131C	0.6
U38C A52C A110G	0.11
U72C U122G U132C	0.24
A13G A129C U131C	0.69
C77A U102C U122C	1.55
A24G U39C A55G	0.86
A27G U39A A62G	0.76
A51G A54G A92G	0.98
A52G U87C A126G U127C	1.42
A30G A62G A118G U132C	0.4
A86U A90G U102C	1.73
U43C A56G A78G	0.32
A22G A24G A54G U97C A129G	0.26

Variant	self-cleavage
A24G U37C A110G A135U	0.11
A23G A24G A64G U124C	0.97
U2C A18U A51G A78G U108C G115A U130C	0.01
U12C A59G U72C U127C	0.13
U72A A111G U127A	0.06
A11G U39C A116G	0.17
A13U A52U A69G	1.26
A51G A62G U87C	0.25
A11G A59G G73A	0.07
U39C U108C U133C	0.01
A18U A66G A95G	1.4
A33G A63G A66U A96G	0.94
A33G A66G A116G U120C	0.33
A24G A91G A111C	0.03
A55G A68G A69U A90G G93A U132A	0.83
U102C A116G A129G	0.42
U49C A54U U133G	1.57
A18U A54G A111G	0.01
U19G A23G A51U U130A	0.85
U38A A92G A110G A134G	0.08
U39A A59G A140U	2
U37A A52G A59U U108A	0
U12C U37C A55C A59U U120C	0.9
A18C A24C A125G	0.38

Variant	self-cleavage
A56G A66G A110U	1.27
A30U G53A A117G	2.59
U87C A114U A135G	0.03
U2C A23G A68G A98G A135U	0.8
A23G U39A A52G A59G	0.36
A59G U87C A140G	0.67
U2A A18G A51G U103C A110G A116G U120C	0.02
A24U A36U A63G	1.6
U2C A90G A116U A126G	0.02
U19G U37C A56G G137A	0.76
A54G A59G A94G C101A A117G A129G	0.05
A24U U100A U131C	0.57
A33U A64G U127C	1.1
U37C U39C A98G U122C	0.8
A36G A47G A62G A117G	0.84
U37C A56G U57C U130C	1.29
A22G A68G U103C	1.4
G7A A95G U97C	1.02
A62G A116G G123A	0.91
A4G A33G U38C U57A	1.14
A13U G74C A116G	0.07
A36G G73A A116G A118G U124A	0.01
A55G A67U U132C	2.1
A24G U87C U103C	0.83

Variant	self-cleavage
A22G A92G A116G A125G	0.25
U37C U49C A118G A126G U139C	1.07
A36U A54G A86G	2.52
A18G A27U U38C A78C U87A U124C	0.12
U37A A68G A82G A96G A117G U130C	0.24
A51G A68G U70A A96G C121A U124C	0.84
A56G A92G U122C	1.06
A24C U57C U122C U131G A140G	1.68
A22G U72C A82U A118G	0.02
G75C A89U U102C U103A	0.05
A51G A63G U87C U102C A117G	2.5
A92G A114U U130C	0.02
A5G U9C U100C A117G	1
A56G A92G G119A A129G	2.49
A11G A22G U39C U43A U120C	1.18
A5G U57C A64G C105A	0.01
A59G A69G A135G A140G	1.33
U102C C113U U139C	0.05
U87C A114G A116G	0.19
U2C U3A A22G A59G A60G A91C A110G	0.09
A22U A129G U133C	1.86
A13G U39C A67G A69G A111G U122C	0
A66U A78U A89G	0.31
A33G U39C A47G A96G	0.58

Variant	self-cleavage
A11U A86U A91G	1.49
U12C U19C C85U A91G A116G	0.11
G7U A23G A54G	1.63
C40U A68G A92G	1.45
U26C C35U U132C	0.97
A24G A60G U124A U131C	0.2
A60U A118G U131C	0.52
U72A A110G A116G U122C	0.02
G8C U43C A54G A66G	1.67
G8A A63G A90G U120C A129G U132G	0.13
A4G A22G U38C U49C A64G	1.05
U43C C46U U70C A95G	1.53
A27G A47G A91U	1.08
U26C A62U U70C	0.62
A23G A89U U132C	1.8
A18G A55U A89C U122A	0.93
A22G A47G A96C A117G	0.49
A18U U37C A47U A66G	0.84
A4G C42U A66G U130C	0.54
U39A A52G U72C A126G U130C	0.11
A47G U108A U130C	0
U2C A78U A94G U124G	0.08
A90G U103C A129U	0.4
U3C A52G A110U G119A	0.95

Variant	self-cleavage
C17U U124C U132C	0.73
A11G A51U A78U	0.31
C16G A62G A126G	0.57
A52G U70C U120C U122C	0.18
U9C A33G U43A A125G	0.43
C10A A47G A60U A67G U97C	0.76
A23U A68G A78G A117U A125G	0.02
A23G A51G A69G A92G U100C	1.39
A30G A52C A125G A126U	0.67
U57C A86G A89G U108C	0
A64G A68G U127C	0.75
U12C A67U A94G	2.44
G44A A55G A90G U102C	2.72
U19C A30G A66G A69G U72G G74U A86G	0.21
G58A A69U G83A A117G	2.27
C40U A62U A67G A116G A118U	0.11
A54G C76U A92G U132G	0.06
U12C G20U A66G U130C	0.62
U2C A66G U131C	0.61
G29U A33G A134G	0.66
U12C A52G U97C	1.81
A24C A55G A86G	1.28
A24G G41C A82U U87A A111G	0.07
A5G A22G A63G C107A	0.14

Variant	self-cleavage
U9C A66G A90G	0.91
U2A U108C A126G	0.02
A23G A55G A68U A92G U102C	1.71
A13G A36U U132C	1.83
A11U A64G U133C	0.67
A55U A63G A129G	1.8
U43C U130C A134U	0.49
A23C A64G U103C A114C	0.05
A30G G31A A60U A67G	1.52
A11G A51G A111G	0.3
A59G C128A U132A	0.9
A67U U127C A135G	1.84
U9C U39C G83A	1.74
U3C A82U A111G	0.08
A24G U57C A68G A82U G137A U139C	0.14
A18G A59G A68U A69G A116G	0.35
U3C A90G U132C	0.63
A18G G41C A111G	0.04
A27C A69G U70A A114U A135U	0.07
A11U A96G U131C A135U	0.93
U9C U49C A67G A68G	1.34
A55G A82U A114G	0.07
A5G A56G A90G	0.69
